Values joined by “and” are separate entries in the source; they are usually repeats but may differ in a detail not shown here. Equal entries are not always repeated. The whole screen tested about 390,000 compounds, of which about 1,400 (0.36%) were called active. The shares of active, inactive and inconclusive entries below differ from those in the screen. Calls follow the shape of the dose curve; as a rule, active = well fitted inhibition curve with a large enough effect; inconclusive = small, poorly fitted or top-dose-only effect; inactive = no such curve, though single readings can be large or run the other way. Where the call is inconclusive, the potency comes from a doubtful curve fit.
The molecules below were run against Flap endonuclease 1 (Homo sapiens) (UniProt P39748) (assay: qHTS Assay for the Inhibitors of Human Flap endonuclease 1 (FEN1).). Conditions: Recombinant FEN1 flap cleavage, fluorescence, 15 min; series mostly up to 114 µM.
UniProt P39748, sequence (P39748 whole entry, looked up): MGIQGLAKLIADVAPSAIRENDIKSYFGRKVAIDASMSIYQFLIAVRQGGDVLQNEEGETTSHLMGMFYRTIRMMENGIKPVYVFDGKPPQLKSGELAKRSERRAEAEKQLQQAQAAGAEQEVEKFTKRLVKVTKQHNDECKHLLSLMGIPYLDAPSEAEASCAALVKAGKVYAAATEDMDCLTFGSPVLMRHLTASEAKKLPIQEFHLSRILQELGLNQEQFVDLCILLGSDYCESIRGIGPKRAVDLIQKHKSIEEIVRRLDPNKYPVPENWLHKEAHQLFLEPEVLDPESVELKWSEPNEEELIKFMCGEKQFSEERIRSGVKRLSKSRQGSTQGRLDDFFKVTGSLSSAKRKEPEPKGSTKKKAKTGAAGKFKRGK
Procedure, shortened: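 In this screen, 50 nM flap DNA substrate was added to 10 nM FEN1 pretreated with compound for 15 min at room temperature; cleavage was followed with reads at 0 and 15 min, and Hill fitting gave concentration–response parameters.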
Also: nearly all actives have a fitted effect of over 65% in size.
Potency is read from the fitted curve at half-maximal effect; tags tell the direction and shape of the fitted curve.

SMILES	Potency
COc1cnc(-c2ccccn2)nc1Sc1ccccc1Cl	inconclusive: 89.1 µM [inhibitor, partial curve, poor fit]
CC1=NN(c2ccccc2)C(=O)/C1=C/c1c(O)n(-c2ccc(F)c(Cl)c2)[nH]c1=O	inconclusive: 79.4 µM [inhibitor, partial curve, poor fit]
O=C(Oc1c(CN2CCOCC2)cc(Cl)c2cccnc12)c1ccccc1Br	inactive
Cc1ccc2cccc(NC(=O)c3cccc4c(Br)cccc34)c2n1	inactive
O=C(Cn1c(=O)n(-c2ccc(Cl)cc2)c(=O)c2c3c(sc21)CCCCC3)Nc1cccc(Cl)c1	inactive
Cc1ccccc1C(=O)Nc1cc2c(cc1N1CCCCC1)n(C)c(=O)n2C	inconclusive: 56.2 µM [inhibitor, partial curve, poor fit]
CNC(=O)COC(=O)c1c2c(nc3ccccc13)CCC2	inconclusive: 89.1 µM [inhibitor, partial curve, poor fit]
CC1=C(C(=O)Nc2cc(Cl)ccc2C)C2(CCCCC2)OC1=O	inconclusive: 3.16 µM [inhibitor, partial curve, poor fit]
NS(=O)(=O)c1ccc(NCc2cc(Cl)ccc2OCc2ccccc2F)cc1	inconclusive: 79.4 µM [inhibitor, partial curve, poor fit]
Cn1cc(/C=C/c2cc[n+](C)cc2)c2cc(Cl)ccc21	active: 50.1 µM
COc1ccc2c(c1)C1CC(C)(NC(=O)C1S(=O)(=O)c1ccc(F)cc1)O2 (stereo unspecified)	inconclusive: 89.1 µM [inhibitor, single point]
Nc1c(Br)cc(Br)c2c1C(=O)c1c(cccc1S(=O)(=O)O)C2=O	inconclusive: 44.7 µM [inhibitor, partial curve]
CCCn1nc(C(=O)Nc2cccc(S(=O)(=O)N(C)c3ccccc3)c2)c2ccccc2c1=O	inactive
CCN(CC)CCN(C(=O)/C=C/c1cccs1)c1nc2ccc(Cl)cc2s1	inactive
O=C(CCCSc1ccccc1)Nc1ccc(Cl)c(S(=O)(=O)N2CCOCC2)c1	inconclusive: 79.4 µM [inhibitor, partial curve, poor fit]
Cc1nnc(C)n1/N=C/c1ccc(-c2ccccc2Cl)o1	inactive
C(=N/Nc1cc(N2CCOCC2)nc(N2CCOCC2)n1)/c1ccccc1	inconclusive: 89.1 µM [inhibitor, partial curve, poor fit]
Cc1nc2ccc(C(=O)O)cc2c2c1CC(C)S2 (stereo unspecified)	inconclusive: 56.2 µM [inhibitor, partial curve, poor fit]
COc1cc2c(cc1OC)C1CC(=O)C(CC(C)C)CN1CC2 (stereo unspecified)	inconclusive: 3.36 µM [inhibitor, partial curve, poor fit]
COc1ccc(CCn2nnnc2CN2CCN(C(=O)c3ccco3)CC2)cc1OC	inconclusive: 39.8 µM [inhibitor, single point]
Oc1ccc(NCc2cccc(OCc3ccc(F)cc3)c2)cc1	inconclusive: 15.8 µM [inhibitor, full curve, poor fit]
COc1ccc(OC)c2sc(N(CCCN(C)C)C(=O)CCS(=O)(=O)c3ccccc3)nc12	inconclusive: 56.2 µM [inhibitor, partial curve]

SMILES	Potency
CC(NC(=O)CNC(=S)N(Cc1cccs1)C1CCCC1)c1ccccc1 (stereo unspecified)	inconclusive: 79.4 µM [inhibitor, partial curve, poor fit]
O=C(/C=C/c1cccc([N+](=O)[O-])c1)c1ccc2c(c1)OCCO2	inactive
COc1ccc(-c2cc(C(=O)O)[nH]n2)cc1OC	inactive
O=C(COC(=O)c1nc(Cl)ccc1Cl)Nc1ccc2[nH]c(=O)[nH]c2c1	inconclusive: 56.2 µM [inhibitor, partial curve, poor fit]
CC(C)(C)c1nnc2sc(SCC(=O)c3ccccc3)nn2c1=O	inactive
N=C1CCC(=N)c2c1c(O)c1ccccc1c2O	active: 39.8 µM
COc1ccccc1N(CC(=O)NCCC1=CCCCC1)S(=O)(=O)c1ccccc1	inactive
Cc1ccc(Cn2c(CN3CCN(c4cccc(Cl)c4)CC3)nc3c2c(=O)n(C)c(=O)n3C)cc1	inactive
COc1cc(OC)c(OC)cc1/C=C/c1nc2ccccc2o1	inactive
COc1cc(Cl)c(C)cc1NC(=O)CSc1sc2c(O)cc(=O)[nH]c2c1C#N	inconclusive: 79.4 µM [inhibitor, single point]
COc1ccc(C(=O)NC(=S)Nc2ccc(CN3CCOCC3)cc2)cc1Br	inconclusive: 89.1 µM [inhibitor, partial curve, poor fit]
CCN(CC)CCCNC(=O)c1cc2c(-c3cccc(OC)c3)nn(C)c2s1	inconclusive: 14.1 µM [inhibitor, full curve, poor fit]
O=C(Cn1cc(C(=O)c2cccs2)c2ccccc21)Nc1ccc(Br)cc1	inactive
CN=c1nc(-c2ccccc2)n(-c2ccccc2)s1	inconclusive: 100 µM [inhibitor, single point] and inconclusive: 79.4 µM [inhibitor, single point]
CCN(CCCNC(=O)c1cc2c(-c3cccc(OC)c3)nn(C)c2s1)Cc1ccccc1	inconclusive: 50.1 µM [inhibitor, partial curve, poor fit]
O=C1C=C(c2ccc(OC(F)(F)F)cc2)C[C@@H](c2ccc(F)cc2)C1	inconclusive: 31.6 µM [inhibitor, partial curve, poor fit]
Cc1cc(C(=O)O)ccc1-c1ccc(/C=C2\NC(=O)N(Cc3ccccc3Cl)C2=O)o1	inconclusive: 56.2 µM [inhibitor, single point]
Cc1coc2c1c(C)cc1oc(=O)c(CC(=O)NCCCN3CCCC3=O)c(C)c12	inconclusive: 79.4 µM [inhibitor, partial curve, poor fit]
CCc1cccc(NS(=O)(=O)c2ccc3c(c2)N(CC(=O)OC)C(=O)CS3)c1	inactive
O=C(O)CCC(=O)Nc1ccc(SSc2ccc(NC(=O)CCC(=O)O)cc2)cc1	inconclusive: 70.8 µM [inhibitor, partial curve, poor fit]
O=C(CN1C(=O)N/C(=C\c2ccccc2OCc2ccc(C(=O)O)cc2)C1=O)Nc1ccccc1F	inconclusive: 56.2 µM [inhibitor, single point]
COC(=O)c1cc(=O)n(CCc2ccccc2F)c(=Nc2ccc(F)c(Cl)c2)s1	inactive

SMILES	Potency
OCCCNc1ncnc2sc(-c3ccccc3)cc12	inconclusive: 17.8 µM [inhibitor, partial curve, poor fit]
O=S(=O)(Nc1ccccc1F)c1cccc(NC(=S)NCCN2CCOCC2)c1	inconclusive: 89.1 µM [inhibitor, single point]
O=C1Nc2cc(C(=O)NCCCN3CCOCC3)ccc2S/C1=C/c1cccc(Cl)c1	inactive
CN1CCc2c(sc(/N=C/c3c[nH]c4ccccc34)c2C(N)=O)C1	inconclusive: 50.1 µM [inhibitor, partial curve, poor fit]
CC(C)CC1C(C#N)=C(N)Oc2n[nH]c(-c3cccs3)c21 (stereo unspecified)	inconclusive: 22.4 µM [inhibitor, single point]
Cc1ccc(-c2nn(-c3ccccc3)cc2/C=C/C(=O)O)o1	inactive
Oc1ccc(NCc2ccc(OCc3ccccc3)cc2)cc1	inconclusive: 7.94 µM [inhibitor, partial curve, poor fit]
O=C(C[n+]1ccc(/C=N/O)cc1)NC(=O)Nc1ccccc1	inconclusive: 79.4 µM [inhibitor, single point]
CCOc1ccccc1C1N=C(c2ccc(OC)cc2)CC(c2ccccc2O)N1 (stereo unspecified)	inactive
O=C1/C(=C\c2cc(Cl)c(O)c(Cl)c2)SC(=S)N1Cc1ccccc1	active: 50.1 µM
CCC(CC)NC(=O)Cc1ccc(S(=O)(=O)N2CCOCC2)s1	inactive
CCCCNc1c(-c2cccc(SC(C)CC)c2)nc2ccc(Cl)cn12 (stereo unspecified)	inconclusive: 70.8 µM [inhibitor, partial curve, poor fit]
COc1ccc(/C=N/NC(=O)c2ccc(NC(=O)c3cccc([N+](=O)[O-])c3)cc2)c(C(=O)O)c1OC	inactive
O=C(O)CC1S/C(=N/N=C/c2ccc(-c3ccc(Cl)cc3[N+](=O)[O-])o2)NC1=O (stereo unspecified)	inconclusive: 89.1 µM [inhibitor, partial curve, poor fit]
CC1(C)CC(=O)C2=C(C1)Nc1ccccc1NC2c1ccc(F)cc1 (stereo unspecified)	inactive
COc1cc(OC)cc(C(=O)NNC(=O)CCOc2ccccc2OC)c1	inconclusive: 100 µM [inhibitor, single point]
COc1ccc(NS(=O)(=O)c2ccc3[nH]c4c(c3c2)CCCCC4)cc1	inactive
CC(=O)c1ccc(NC(=O)c2ccc3c(Cl)c4c(nc3c2)CCCC4)cc1	inconclusive: 56.2 µM [inhibitor, partial curve]
CC1CCN(C(=O)CSc2nc3ccccc3nc2Cc2ccccc2)CC1	inconclusive: 79.4 µM [inhibitor, partial curve, poor fit]
CC(C)N1C(=O)S/C(=C/c2ccccc2OCc2ccc(C(=O)O)cc2)C1=O	inconclusive: 89.1 µM [inhibitor, single point]
C=C(C)C(=O)Nc1cccc(C2=NOC3(C2)C[C@@H](C(N)=O)N(C(=O)/C=C/C=C/C)C3)c1 (stereo partly specified)	inconclusive: 31.6 µM [inhibitor, partial curve, poor fit]
CC[C@H](CO)Oc1cc(NCc2ccc(Cl)c(Cl)c2)c2ncn(C(C)C)c2c1	inconclusive: 70.8 µM [inhibitor, partial curve, poor fit]

— PubChem BioAssay AID588795 (National Center for Advancing Translational Sciences (NCATS), 2011)
